B1: CPEB3 Ribozyme (parent)
chain: UAACAGGGGGCCACAGCAGAAGCGUUCACGUCGCAGCCCCUGUCAGAUUCUGGUGAAUCUGCGAAUUCUGCUGUAUAUCUC

Read counts are not given, so values of variants with three or more changes are uncertain.

In this data set the parent is B1. Briefly: self-cleavage, relative activity (ratio to wild type); higher = more cleavage; in vitro, sequencing. A digest of the protocol:
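For each CPEB3 ribozyme variant, relative activity is its cleaved/total read fraction divided by the unmutated ribozyme's. Barcoded error-prone PCR libraries were transcribed by T7 RNA polymerase (5 hours, 37°C) and held in DNase I for 15 min before an EDTA stop, with cleavage occurring throughout. Template-switching reverse transcription and Illumina sequencing were used to read the RNAs. A 5-read minimum applied, and results are the mean of three batches.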
As to G7A C12U C27A A57G, the self-cleavage was determined as 0.05.
With G7U A18G U41C U49C the figure was 0.29.
With G7U A20U U25A U26A C37A G46A U49C the figure was 0.03; with G7C G46A U51C U69A C71U, 0.04.
Next, G7U A35G U60A U74C: 0.22; G7U G10C A13C A28G C32U U51A: 0.08; G7C A18U A20G U31C: 0.35.
For G7A C23U U26A C34U U51C U74A U76A, the self-cleavage worked out at 0.05.
Next, G7C A13U U58C: 0.07; G7A G53U A65G: 0.01; G7U C17U G19A U67A: 0.06.
With G7U A20U U41C U49C U60C U74A U76A the figure was 0.05.
On to G7U A20G U48C U54C, for which the self-cleavage was found to be 0.2.
Next, G7A U31C C32G U69C: 0.13.
Consider G7A U25C U51A, for which the self-cleavage was 0.05.
Regarding G7U A18C U25C, the self-cleavage was found to be 0.05.
Next, G7U A18G U25A U41C: 0.06; G7A G10A U74C: 0.08; G7A G10A U43G U49C U67C A77G: 0.03.
Next, G7U A28C C29G C37A U54A C68A: 0.04; G7C A21G G30U U58C: 0.06.
For G7A U25G U26C U67A, the self-cleavage came to 0.25.
Next, G7A G9A A18G U54C A57G U58C: 0.09.
As for G7A U41A U49C, the self-cleavage stood at 0.05.
With G7C U51A C68U U72C the figure was 0.06; with G7U G10C A18G, 0.2.
As to G7A U26A U60A U78C, the self-cleavage worked out at 0.11.
Next, G7C U54A A56G A65U: 0.06; G7C A47U A64U U66C U67C: 0.14; G7A G24A U41C A45G U49C A56G: 0.05.
Regarding G7U A28G G63C U80C, the self-cleavage came to 0.15.
With G7C G9A U60A A65U A75G U78C the figure was 0.04; with G7U A28U U54A A56G U67C, 0.05.
With G7C A13G A20G U31C U51C the figure was 0.03; with G7C G8C U69C, 0.17; with G7U A18G C32U, 0.2.
With G7C U25A A35G U54A A64U A65G C79U the figure was 0.06.
Regarding G7U A13G A45U, the self-cleavage is 0.24.
With G7U A13G A45G the figure was 0.36; with G7C A18G U25C A56G C62U U76A, 0.04; with G7U G10A C23U U31A A57G U74C, 0.04.
Next, G7C U26C A77U: 0.18; G7U A18G U31A U67C U76C: 0.05; G7A U26C U54C A57G G73U: 0.06.
With G7A U48G A64G the figure was 0.09; with G7U A15U A35C U41C A77G, 0.07; with G7A G9A A15G U26G U43A U54C U76A, 0.04.
G7A C40G U51G A57G U72C: the self-cleavage worked out at 0.02.
Next, G7A U26G C40U G63A U80C: 0.06.
Next, G7A G10A U25C U26C U31C A57G: 0.05.
With G7C C37U U58C, the self-cleavage amounted to 0.16.
With G7C A13G G61U C79A the figure was 0.05; with G7A U26A U72C G73U, 0.06; with G7C A15G A45G C50U A64U U72A, 0.05.
With G7U A47G U60C G70C U76C the figure was 0.12; with G7U G19C A56U U60C A77G, 0.04.
In the case of G7C G33A U72A, the self-cleavage came out at 0.25.
Next, G7A C32U U54C: 0.17; G7U G19C U31C U49C U54C A65G U72C: 0.11.
With G7U A21G A35G the figure was 0.24.
Turning to G7A U25A A35G U41A A57G, the self-cleavage is 0.08.
As for G7C A15U U67G U69C, the self-cleavage was 0.08.
With G7A G8A G16U U25C the figure was 0.4; with G7U C32A U69C, 0.07; with G7U A18G A45U U60C U69C, 0.09.
Next, G7U A18U U41C U58A A65G: 0.04.
With G7U A21G C27A U60C the figure was 0.16.
Regarding G7C G10U A13G A75G, the self-cleavage amounted to 0.07.
Next, G7A G19U A28G A64U: 0.07.
Next, G7C A18U G33U G53C G73U: 0.17; G7U A20G G36A U48C U54C A65G: 0.08; G7C C32G G36U U60G U66C: 0.05.
As for G7A U25C U31C C81A, the self-cleavage was found to be 0.16.
With G7A U25A A28G U41A U43C the figure was 0.06; with G7U A15U A21G G22U U41C U48C, 0.02; with G7C A35G U78C, 0.22.
On to G7A U26C U78C, for which the self-cleavage came out at 0.08.
With G7U A28G G63C A64G U80C, the self-cleavage is 0.15.
With G7C A21G U25C the figure was 0.64.
Consider G7U G10A A18G U48C, for which the self-cleavage is 0.17.
For G7U G19U U54C, the self-cleavage was found to be 0.05.
Next, G7U A28G C44U U72C: 0.07; G7A U31C U49C G52C U72C U78C: 0.05; G7A U26A A56U A65G U72C U76C: 0.05.
In the case of G7C U26C A45G U49C A77G, the self-cleavage was found to be 0.03.
Next, G7C U54G A64G U76C: 0.19.
With G7C A35C U67A U69A A77G the figure was 0.11; with G7A U67C C68U, 0.13.
With G7C A35G U74C the figure was 0.45; with G7A C27A U31C C38A U80C, 0.05.
With G7A G10U U54A A57U, the self-cleavage was 0.32.
With G7A U25C U72C U76C the figure was 0.06.
Next, G7A U67C A75G: 0.08.
Next, G7U A15C A56G A57G U76C: 0.04; G7C U41A U54C A56G: 0.14.
For G7A U31C A45G U51C, the self-cleavage stood at 0.06.
G7C U31C U49C U78C: the self-cleavage came to 0.23.
With G7U A64U A65G U66C the figure was 0.47; with G7C A15U U49C U67C U76C, 0.12.
With G7U A28U U51A the figure was 0.19; with G7C G19U A20G A21G C39U U69C, 0.06; with G7U C40U U41C G53C, 0.07.
With G7C A35G C38U U51C the figure was 0.43; with G7A C50U U58A U60C G61A U76A, 0.06; with G7A G24A U26C A28U, 0.3.
As to G7C U25C U60A, the self-cleavage was determined as 0.17.
Next, G7A U41A U69C: 0.12; G7A U26A U78C: 0.32; G7U A20G A56U U69C: 0.07.
As to G7U C11A A56G U60C U69A, the self-cleavage turned out to be 0.09.
With G7A U25C U51C A65G U80C the figure was 0.07; with G7U G22U A35G U48C A64G U72A U76C, 0.04.
Take G7U A56G A75G: the self-cleavage worked out at 0.03.
Next, G7C U49C G53A U69A: 0.08; G7U A45U U67A U80A: 0.18.
Regarding G7A U54C U78A, the self-cleavage worked out at 0.17.
With G7C A18C A35U G36A, the self-cleavage was determined as 0.05.
With G7A U31A U41C the figure was 0.25; with G7C A47G A57G U69C G73A, 0.06; with G7U C14U U54A A57G U67C U72A, 0.09.
As for G7A U26C U43C U60A A65G, the self-cleavage was found to be 0.3.
Regarding G7A U25A C39A A57G, the self-cleavage is 0.07.
With G7U A15G U48A U72C the figure was 0.26; with G7C A21G C27U C38A A45U U49C U78C, 0.03.
Consider G7A U25A U41C A75G U76C, for which the self-cleavage was determined as 0.19.
With G7U A18U G46A U51C U69A C71U U78C the figure was 0.07.
With G7A G16U U72A the figure was 0.14.
Consider G7C C11A G24A U48C, for which the self-cleavage turned out to be 0.23.
In the case of G7C A20G C32U U72C, the self-cleavage came out at 0.13.
As for G7U A15G A47G U60A A65G U69C G70C, the self-cleavage was found to be 0.04.
Next, G7C G19A A20U U48A U72A: 0.06; G7A C40A U51C U60A U67C U76A U80C: 0.04; G7U A20G U48C U54C G63U: 0.1.
With G7C G9A A75G the figure was 0.23.
With G7A U26C U41G A56G the figure was 0.06; with G7A C12U A18G G22A U43A U66A, 0.03; with G7U A35G U43C, 0.18.
For the variant G7U A18U A21C A28U A45U, the self-cleavage is 0.
Next, G7C G8A G30U A47U U54C: 0.04; G7U C11G A28U A47G U48G A57G U66C: 0.04.
With G7A C14G U26C A47G U54C A64U U78C the figure was 0.06; with G7A C17U C50A A64U, 0.05.
Next, G7U A64U A65G U67C: 0.02.
Consider G7A G10A A13U A56U U80C, for which the self-cleavage stood at 0.08.
Next, G7C G9A A28G U43A A45G: 0.05; G7A C37U A65U: 0.09.
With G7U A20G U25C C40U A65G C79U the figure was 0.06.
As to G7C A20U U31A U51C U58C, the self-cleavage was found to be 0.07.
Regarding G7A U49A U60C, the self-cleavage stood at 0.06.
On to G7U A18G A20U U25C U31A C39G A56U, for which the self-cleavage was found to be 0.03.
Next, G7A U48C A57G U67C U78A: 0.04; G7U A18U A28G: 0.11.
With G7U A28G C37A U48C U58C U69A the figure was 0.04; with G7A U41A A47G U67A U76C, 0.05; with G7A U26C A47G U76C, 0.24.
With G7U C29U A45U U60C A77G the figure was 0.35; with G7A U43A U67A, 0.24; with G7A U43C A45G A56G A57G U76C, 0.12.
In the case of G7A U31C A35C U51C A56C A64G A65U, the self-cleavage was 0.05.
With G7C U25C U31C U41C the figure was 0.06.
With G7A U26C A35G U72A the figure was 0; with G7U A28G G52A U80C, 0.19.
Next, G7C G30U U58C A75G: 0.05; G7A G8A A13U U26A U66C U69G U80A: 0.07.
For the variant G7C U48C U67A, the self-cleavage was found to be 0.22.
Consider G7U A21G U49C U69C U72C, for which the self-cleavage came to 0.18.
Next, G7A U54G U60C U67A: 0.06.

(Values after the RNAGym collection of RNA variant scans (doi:10.1093/nar/gkz1192).)
